In publication PMC4336329 (PLoS ONE, 2015):
The whole screen tested about 310,000 compounds, of which about 2,200 (0.71%) showed an effect of 50% or more. The effect is printed as a negative number. This is one part of the list.

Biological target: human ether-à-go-go-related gene (hERG) potassium channel (human, UniProt Q12809)
Experiment: primary screen, population patch clamp on CHO cells stably expressing hERG

human ether-à-go-go-related gene (hERG) potassium channel, sequence (Q12809 whole entry, looked up): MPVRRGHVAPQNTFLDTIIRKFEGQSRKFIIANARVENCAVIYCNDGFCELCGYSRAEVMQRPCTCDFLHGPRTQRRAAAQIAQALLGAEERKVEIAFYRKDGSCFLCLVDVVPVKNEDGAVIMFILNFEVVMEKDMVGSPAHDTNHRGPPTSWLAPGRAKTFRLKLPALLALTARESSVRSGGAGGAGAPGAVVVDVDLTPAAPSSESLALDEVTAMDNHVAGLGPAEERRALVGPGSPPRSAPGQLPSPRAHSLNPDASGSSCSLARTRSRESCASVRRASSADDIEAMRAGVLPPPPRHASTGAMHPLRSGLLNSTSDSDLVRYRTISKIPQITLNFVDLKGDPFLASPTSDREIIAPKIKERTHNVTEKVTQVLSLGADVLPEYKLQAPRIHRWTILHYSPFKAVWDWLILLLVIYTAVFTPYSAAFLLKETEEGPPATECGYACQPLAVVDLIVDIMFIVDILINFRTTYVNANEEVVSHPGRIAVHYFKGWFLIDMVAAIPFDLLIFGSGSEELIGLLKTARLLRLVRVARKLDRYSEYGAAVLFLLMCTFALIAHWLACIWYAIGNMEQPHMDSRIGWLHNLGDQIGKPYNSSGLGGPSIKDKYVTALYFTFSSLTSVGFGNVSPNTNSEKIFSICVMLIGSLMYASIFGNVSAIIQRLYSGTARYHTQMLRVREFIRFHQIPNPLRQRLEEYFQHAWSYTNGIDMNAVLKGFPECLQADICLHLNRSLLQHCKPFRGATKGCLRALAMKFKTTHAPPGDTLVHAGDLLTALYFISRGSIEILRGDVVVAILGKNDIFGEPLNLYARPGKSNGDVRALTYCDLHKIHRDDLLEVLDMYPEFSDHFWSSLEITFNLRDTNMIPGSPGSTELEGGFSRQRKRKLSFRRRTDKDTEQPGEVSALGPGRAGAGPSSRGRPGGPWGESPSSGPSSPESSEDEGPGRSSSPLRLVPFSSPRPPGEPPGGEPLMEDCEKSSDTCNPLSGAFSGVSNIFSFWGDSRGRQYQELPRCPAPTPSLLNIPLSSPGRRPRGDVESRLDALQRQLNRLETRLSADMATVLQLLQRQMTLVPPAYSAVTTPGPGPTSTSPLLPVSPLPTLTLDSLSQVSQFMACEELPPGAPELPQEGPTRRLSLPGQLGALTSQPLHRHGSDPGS

Structure (SMILES)	hERG current change (%, negative = inhibition) at 1uM
CCNc1nc(SCC(=O)Nc2ccc(Cl)c(Cl)c2)nc(N(C)C)n1	14%
CC(=O)Nc1ccc(S(=O)(=O)N2CCN(C(=O)c3cccnc3)CC2)cc1	8.74%
CCN1CCN(c2ccc(N=Cc3ccccc3O)cc2)CC1	10.1%
COC(=O)Cn1c(CN(C)Cc2ccccc2)nc2c1c(=O)n(C)c(=O)n2C	13.9%
N#C/C(=C\c1ccccc1[N+](=O)[O-])C(=O)NCc1ccccc1	7.52%
Cc1cccc(C(=O)N2CCN(c3ccc(N4CCOCC4)nn3)CC2)c1	9.05%
CC(C)CN1CN(Cc2ccccc2)CNC1=S	13.1%
CCN(CC(=O)Nc1c(F)cccc1F)C(=O)c1ccc(Cl)c(S(=O)(=O)N2CCCC2)c1	11.2%
COC1CCN(C(=O)c2cc(COc3ccc(-n4cncn4)cc3)on2)CC1	5.81%
Cc1ccc(S(=O)(=O)N2Cc3ccccc3CC2C(=O)NC(C)(C)C)cc1 (centres unmarked)	-0.102%
Clc1cccc(N/N=C(\Cc2nc3ccccc3[nH]2)c2ccccc2)c1	3.08%
O=C(CC12CC3CC(CC(C3)C1)C2)NC(=S)N1CCCCC1	13.1%
COc1ccc(C2N(c3cc(Cl)ccc3OC)C(=O)C3CCCN32)cc1 (centres unmarked)	9.98%
Cc1ccc(S(=O)(=O)NC(C)(C)CN2CCNCC2)cc1	12.5%
Cc1cc(C)c(S(=O)(=O)c2ccccc2C)c(Oc2ccccc2)n1	0.0263%
COc1ccc(S(=O)(=O)NCCc2nnc3ccc(SCC(=O)Nc4cc(C)on4)nn23)cc1	6.09%
CC(C(=O)N1CCCCC1)N(C)CC(=O)Nc1cccc(F)c1.O=C(O)C(=O)O (centres unmarked)	9.77%
Cc1ccc(OCC(=O)N/N=C/C=C/c2ccco2)cc1	-2.69%
COc1ccc(CNCCNC(=O)c2cccs2)c(OC)c1OC	17.2%
COc1ccc(CN2C(=O)c3ccccc3C2C(=O)NC2CCC(C)CC2)c(OC)c1 (centres unmarked)	6.09%
Cc1ccc(C)c(OCc2n[nH]c(=S)o2)c1	10.6%
CCOc1cc(N2CCOCC2)c(OCC)cc1NC(=O)COC(=O)CCn1c(C)csc1=O	-17.7%

Structure (SMILES)	hERG current change (%, negative = inhibition) at 1uM
Cc1cc(C)c(C)c(S(=O)(=O)NC(C)C(=O)O)c1C (centres unmarked)	13.2%
Cn1nccc1C(=O)Nc1ccc(OC(=O)c2ccnn2C)cc1	1.26%
CCCCN1Cc2cc(C(=O)c3cc(F)ccc3O)cnc2NC1=O	-1.1%
CCSc1nnc(NC(=O)c2cccc(S(=O)(=O)N(C)c3ccc(C)cc3)c2)s1	9.08%
COc1cccc(NC(=O)Cn2nnc(C(=O)Nc3cc(Cl)ccc3OC)c2N)c1	15.5%
O=c1c2c(-c3cccs3)csc2[nH]c(=S)n1-c1ccccc1	10.5%
COc1ccc(Cn2c(C)nc3ccc([N+](=O)[O-])cc3c2=O)cc1	5.96%
CCS(=O)(=O)N1CCC(C(=O)NCCCOC)CC1	14.7%
O=C(NNC(=O)c1csc(N2CCOCC2)n1)c1ccc(=O)[nH]c1	6.62%
CCCNC(=O)c1ccc(N2CCC3(CC2)CC(c2ccccc2)=NO3)c(NC(=O)Cc2ccc(F)cc2)c1	-7.77%
Cc1ccc2nc(Cl)c(/C=C/C(=O)c3ccco3)cc2c1	16.4%
CCN1CCN(CCCNC(=O)CS(=O)(=O)Cc2nc(-c3ccccc3C)oc2C)CC1	7.48%
COc1ccc(S(=O)(=O)Nc2ccc(C)cn2)cc1	1.38%
Cc1ccccc1OCCn1c(=O)sc2ccccc21	6.89%
CC(C)(C)N1CC2([N+](=O)[O-])CN(C(C)(C)C)CC([N+](=O)[O-])(C1)C2	8.81%
CCCCn1c(SCC(=O)N2c3ccccc3Sc3ccccc32)nc2c1c(=O)n(C)c(=O)n2C	3.06%
O=C(Nc1ccc(Cl)cc1)c1cc(S(=O)(=O)Nc2ccccn2)ccc1Cl	-1.06%
O=C(CN1CCN(CC(=O)Nc2ccccc2Cl)CC1)Nc1ccc2c(c1)OCCO2	-37.3%
C=C(C)CSC1=C(C#N)C(c2ccccc2)CC(=O)N1 (centres unmarked)	-3.8%
CCOC(=O)[C@H]1[C@H]2COc3ccc(C)cc3[C@@H]2N2C(=O)CN(Cc3ccccc3)C(=O)[C@@]12C	9.36%
CCS(=O)(=O)c1ccc2c(c1)N(S(=O)(=O)c1ccc(OC)cc1)CC(C(=O)O)O2 (centres unmarked)	18.5%
O=S(=O)(NCCN1CCCC1)c1ccc(Br)cc1	3.89%

Structure (SMILES)	hERG current change (%, negative = inhibition) at 1uM
COC(=O)C1=C(c2ccc(S(C)(=O)=O)cc2)C[C@@H]2CC[C@H]1N2C(=O)NCCS(C)=O (some centres unmarked)	12.2%
O=C(NNC(=S)NC(=O)c1ccccc1)c1ccc([N+](=O)[O-])cc1	1.47%
CCN(CC)C(=O)c1cc(Cl)ccn1	12.2%
CCCCN(C)C(=O)C1CCC(CNS(=O)(=O)c2ccc3c(c2)CC(C)N3C(C)=O)CC1 (centres unmarked)	13.4%
Cc1nn(Cc2ccccc2)c(Cl)c1/C=N/NC(=O)CNc1cccc(C(F)(F)F)c1	13.3%
COc1ccccc1NS(=O)(=O)c1ccc(C)c(NC(=O)NC2CCCCC2)c1	-1.93%
Cc1ccc(C(=O)NCC(=O)OCc2nnc(-c3ccc([N+](=O)[O-])cc3)o2)s1	-21.3%
C=CCOc1ccc(/C=C2/C(=O)ON=C2C)cc1OCC	19.5%
Cc1ccc(C(=O)N2CCN(S(=O)(=O)c3ccc(Br)cc3)CC2)o1	3.15%
Cn1c(=O)c2c(nc(N3CCCCC3)n2CCSc2nc3ccccc3s2)n(C)c1=O	11.1%
O=S(=O)(NCC(c1ccco1)N1CCN(c2ccccc2F)CC1)c1ccc(F)cc1 (centres unmarked)	1.87%
O=S(=O)(Nc1ccc(N2CCCCC2)cc1)c1ccc(F)c(F)c1	12.5%
CSc1nnc(-c2ccc(F)cc2)o1	13%
COc1ccc(N2CCN(c3oc(COc4ccccc4)nc3C#N)CC2)cc1	-9.7%
Clc1ccc(/C=N/Nc2nnc(Cl)c3ccccc23)cc1	7.81%
O=C(Nc1cccc(S(=O)(=O)N2CCCCCC2)c1)c1cc(=O)c2ccccc2o1	5.24%
Cc1cccc2cc(CN(Cc3nnnn3C3CCCCC3)C3CCCC3)c3nnnn3c12	6.72%
COc1cc(-n2c(C)nc3cccnc32)c(Cl)cc1C(=O)O	16.1%
CC1=NN(c2ccc(Cl)cc2)C(=O)C1C(c1ccccc1O)c1c(C)[nH]n(-c2ccc(Cl)cc2)c1=O (centres unmarked)	11%
CCCCN(CC)CCNC(=O)c1cc2c(C)nc3ccccc3c2o1	-15%
O=C(O)CCCCCN=Cc1c(O)c2ccccc2oc1=O	9.8%
CCC1CCCCN1c1nc2c(C=O)c(C)nn2c2ccccc12 (centres unmarked)	3.82%

Structure (SMILES)	hERG current change (%, negative = inhibition) at 1uM
Nc1nc(-c2cc(Cl)cc(Cl)c2OC(F)F)cs1	10.7%
Cc1cc(C(=O)CCC(=O)Nc2ncccc2C)c(C)s1	8.39%
Cc1ccc(C2c3[nH]c4ccccc4c3C[C@H]3C(=O)N(c4ccccc4C(=O)NCCCN4CCOCC4)C(=O)N23)cc1 (some centres unmarked)	2.32%
CCCCC1(C)NC(=O)N(CC(=O)Nc2cc(S(=O)(=O)N3CCOCC3)ccc2Cl)C1=O (centres unmarked)	4.4%
COc1ccccc1-c1nc(-c2ccccc2)[nH]c(=O)c1C#N	6.71%
COc1ccc(C(=O)Nc2ccc(Cl)cn2)cc1S(=O)(=O)N1CCCC1	-14.4%
Brc1cc(Br)c2nc(-c3cccs3)ccc2c1	8.07%
Cc1cc(NC(=O)c2ccccc2)n(-c2ccccc2)n1	12.1%
N#C/C(=N\Nc1cc(Cl)cc(Cl)c1)c1nnc2n1CCCCC2	4.31%
Cl.NCCCC(=O)N1c2ccccc2Sc2ccc(Cl)cc21	7.61%
CCN1CCN(C(CNS(=O)(=O)c2ccc(C)cc2)c2cccnc2)CC1 (centres unmarked)	-9.35%
C[C@H](CCC(=O)O)[C@H]1CC[C@H]2[C@@H]3C(=O)C[C@@H]4CC(=O)CC[C@]4(C)[C@H]3CC(=O)[C@]12C	14.6%
COc1ccc(C(C)=O)cc1CSc1nnc(Nc2ccc(C)cc2)s1	9.59%
CC(NC(=S)Nc1ccccc1)C(c1cccs1)N1CCOCC1 (centres unmarked)	5.09%
CCCCn1c(SCC(=O)N(CC)C2CCS(=O)(=O)C2)nc2cc(S(N)(=O)=O)ccc21 (centres unmarked)	18.1%
O=C(CSc1nnc(CNC(=O)c2ccccc2)o1)NCc1ccc2c(c1)OCO2	4.4%
CC1CN(c2oc(-c3ccccc3Cl)nc2C#N)CC(C)O1 (centres unmarked)	7.03%
COc1ccccc1N1CCN(Cc2ccc(C(=O)O)cc2)CC1	9.12%
O=C1CCC([N+](=O)[O-])C(c2ccc(Cl)cc2Cl)N1 (centres unmarked)	4.22%
COc1cc(C)c(S(=O)(=O)n2ccc(C)n2)cc1C	10.8%
